Measurements as given in paper PMC5836133.
The list shows a part of the results. At the low end of the ranking the order means little.

Test system: T1, GST-NbGlk1(82-244)
T1 sequence: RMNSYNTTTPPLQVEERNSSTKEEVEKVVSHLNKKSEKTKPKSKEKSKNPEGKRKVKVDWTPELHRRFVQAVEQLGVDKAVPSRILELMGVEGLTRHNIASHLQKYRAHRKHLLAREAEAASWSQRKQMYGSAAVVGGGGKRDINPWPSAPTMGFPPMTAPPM
Experiment: protein-binding microarray;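 also: rank-based score ranging −0.5 to +0.5 with E above 0.45 taken as significant binding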
Details: NbGlk1 is a Golden2-like transcription factor of Nicotiana benthamiana; high values mean tight binding; most listed sequences are background and not binding sites; double strand, one strand shown

Row | Sequence | binding signal
1 | ATATAATA | 0.201 E-score
2 | AGATGGAA | -0.198 E-score
3 | ATCCGAAT | 0.333 E-score
4 | AACAGGGC | -0.206 E-score
5 | CAAAGTAC | -0.0842 E-score
6 | CAATGAAC | -0.149 E-score
7 | ATACATAC | 0.139 E-score
8 | AGCGACGG | -0.248 E-score
9 | AAGTTAGC | -0.0457 E-score
10 | ACTATAAG | -0.0357 E-score
11 | CAATCATC | 0.106 E-score
12 | AATTCTCA | 0.243 E-score
13 | AGGGCGGA | 0.0685 E-score
14 | ACGTGTGA | -0.059 E-score
15 | ACCTACTC | -0.139 E-score
16 | ATTTAAAG | 0.222 E-score
17 | ATCACCGG | 0.0837 E-score
18 | AGTACGTG | 0.049 E-score
19 | AAGAAGGT | -0.17 E-score
20 | AGAAACGC | -0.0257 E-score
21 | CACACTAC | -0.0284 E-score
22 | ATCTTTAC | 0.23 E-score
23 | AGTTTCCC | -0.105 E-score
24 | ACGATTTA | 0.172 E-score

Row | Sequence | binding signal
25 | AATAATTA | 0.146 E-score
26 | AAACTACC | -0.0432 E-score
27 | ACCAGTAG | -0.0836 E-score
28 | ATCCAAGG | -0.00438 E-score
29 | ATGTGAAA | 0.166 E-score
30 | AAGATTCG | 0.41 E-score
31 | AGAAGTTG | -0.00793 E-score
32 | AGCGCAGA | -0.00562 E-score
33 | AGAAATCG | 0.338 E-score
34 | ACTGCTCC | -0.0435 E-score
35 | ATCTCTAA | 0.216 E-score
36 | AAGCGATG | -0.0189 E-score
37 | CACTCATG | -0.0769 E-score
38 | ACACTAAG | -0.0222 E-score
39 | ACTCCAAT | 0.0888 E-score
40 | CAAATCGA | 0.28 E-score
41 | ACCCATGC | -0.251 E-score
42 | CACCGATG | -0.121 E-score
43 | CAAGGTTC | -0.147 E-score
44 | AAGAGCCC | -0.256 E-score
45 | AACGACGG | -0.0607 E-score
46 | AAACCTCT | -0.222 E-score
47 | AAACCGCG | -0.00344 E-score
48 | ACTCATAA | 0.00568 E-score

Row | Sequence | binding signal
49 | AGGTTTGA | -0.0238 E-score
50 | AGCAGGGG | -0.148 E-score
51 | AAGAGGTG | -0.191 E-score
52 | ATTCCTCC | 0.187 E-score
53 | AAGGACAT | -0.0376 E-score
54 | ACCCTCGG | -0.0322 E-score
55 | AGCTCAAG | -0.203 E-score
56 | ACTGTCGC | 0.0264 E-score
57 | AATCCACA | 0.419 E-score
58 | AGAAGCCT | -0.257 E-score
59 | AATCCGAC | 0.375 E-score
60 | ACCGTTGG | -0.183 E-score
61 | AAACTGGT | -0.116 E-score
62 | ACAAGGTC | -0.167 E-score
63 | ATTTGGCA | 0.161 E-score
64 | AGTCGAAT | 0.0338 E-score
65 | AACTATCA | 0.0505 E-score
66 | ACGGCTAG | -0.0966 E-score
67 | ACCGTTAG | 0.031 E-score
68 | AGACATAG | -0.0306 E-score
69 | AAATCAAA | 0.309 E-score
70 | CACTCTGC | -0.0259 E-score
71 | ACCCATAG | -0.172 E-score
72 | AGCGCAAG | -0.00368 E-score

Row | Sequence | binding signal
73 | AGTAATAC | 0.0512 E-score
74 | AGCTGCCT | -0.204 E-score
75 | CAGATAAC | 0.165 E-score
76 | ACCCAGCC | -0.181 E-score
77 | ATATCTGC | 0.438 E-score
78 | ACATCTAC | 0.0411 E-score
79 | ATCCGGTA | 0.286 E-score
80 | ATGCAACC | -0.0952 E-score
81 | CACACCCC | -0.214 E-score
82 | AGATCGGG | 0.239 E-score
83 | ACTCGACC | -0.187 E-score
84 | ATGGTGAC | -0.26 E-score
85 | AAACCTTG | -0.0376 E-score
86 | CACGGGTA | -0.147 E-score
87 | AGAGAAAA | 0.0447 E-score
88 | AGCTCACA | -0.343 E-score
89 | ATGAGCAG | -0.107 E-score
90 | CAGAATGA | -0.0644 E-score
91 | AAAGGTAA | 0.0447 E-score
92 | ACCGTATA | 0.0842 E-score
93 | ATATGTTA | 0.148 E-score
94 | ACTGTAGG | -0.0914 E-score
